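Compound exposure: 48 hours, 5 concentrations, 96-well plates. GI50: concentration for 50% inhibition of growth.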 For part of its entries the source gives two or more results. This list holds those alone. There may be further records. A record mostly stands for its own series of concentrations, which the source does not state; a value can be the end of its range.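 At the TGI there is no net growth.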
Assays:
Assay in all cases: NCI-60 cell line screen, 48 h
SN12C renal = test system: SN12C renal
A498 renal = test system: A498 renal
SF-295 CNS = test system: SF-295 CNS
SK-MEL-2 melanoma = test system: SK-MEL-2 melanoma
OVCAR-8 ovarian = test system: OVCAR-8 ovarian
DU-145 prostate = test system: DU-145 prostate
K-562 leukemia = test system: K-562 leukemia
EKVX NSCLC = test system: EKVX NSCLC
TK-10 renal = test system: TK-10 renal
SW-620 colon = test system: SW-620 colon
SF-268 CNS = test system: SF-268 CNS
U251 CNS = test system: U251 CNS
HOP-62 NSCLC = test system: HOP-62 NSCLC
HCT-116 colon = test system: HCT-116 colon
SNB-75 CNS = test system: SNB-75 CNS
HOP-92 NSCLC = test system: HOP-92 NSCLC
UACC-257 melanoma = test system: UACC-257 melanoma
SK-MEL-5 melanoma = test system: SK-MEL-5 melanoma
CCRF-CEM leukemia = test system: CCRF-CEM leukemia
M14 melanoma = test system: M14 melanoma
SR leukemia = test system: SR leukemia
OVCAR-5 ovarian = test system: OVCAR-5 ovarian
BT-549 breast = test system: BT-549 breast
NCI-H23 lung = test system: NCI-H23 lung
SK-OV-3 ovarian = test system: SK-OV-3 ovarian
RPMI-8226 leukemia = test system: RPMI-8226 leukemia
NCI-H226 lung = test system: NCI-H226 lung
PC-3 prostate = test system: PC-3 prostate
HL-60(TB) leukemia = test system: HL-60(TB) leukemia
MOLT-4 leukemia = test system: MOLT-4 leukemia
HCT-15 colon = test system: HCT-15 colon
OVCAR-3 ovarian = test system: OVCAR-3 ovarian
SF-539 CNS = test system: SF-539 CNS
MCF7 breast = test system: MCF7 breast
HCC-2998 colon = test system: HCC-2998 colon
MDA-N = test system: MDA-N
OVCAR-4 ovarian = test system: OVCAR-4 ovarian
KM12 colon = test system: KM12 colon
LOX IMVI melanoma = test system: LOX IMVI melanoma
ACHN renal = test system: ACHN renal
HT29 colon = test system: HT29 colon
A549 NSCLC = test system: A549 NSCLC
UO-31 renal = test system: UO-31 renal
UACC-62 melanoma = test system: UACC-62 melanoma
RXF 393 renal = test system: RXF 393 renal
MDA-MB-231 breast = test system: MDA-MB-231 breast
IGROV1 ovarian = test system: IGROV1 ovarian
MDA-MB-435 = test system: MDA-MB-435
786-0 renal = test system: 786-0 renal
HS 578T breast = test system: HS 578T breast
MALME-3M melanoma = test system: MALME-3M melanoma
SNB-19 CNS = test system: SNB-19 CNS

## CC[C@]1(O)C[C@H]2CN(CCc3c([nH]c4ccccc34)[C@@](C(=O)OC)(c3cc4c(cc3OC)N(C=O)[C@H]3[C@@](O)(C(=O)OC)[C@H](OC(C)=O)[C@]5(CC)C=CCN6CC[C@]43[C@@H]65)C2)C1
SN12C renal
  GI50: 1.95 µM [mean of 2 tests] and 119 nM [mean of 46 tests] and 1.26 nM [mean of 7 tests]
  TGI: 111 µM [mean of 2 tests] and 102 µM [mean of 46 tests] and 446 nM [mean of 7 tests]
A498 renal
  TGI: 43.7 nM and 631 nM
SF-295 CNS
  GI50: 106 nM [mean of 41 tests] and 2.92 nM [mean of 7 tests]
SK-MEL-2 melanoma
  GI50: 1.95 µM [1 test] and 71.6 nM [mean of 8 tests]
  TGI: 1.51 µM, 1.66 µM, 80.7 µM
OVCAR-8 ovarian
  GI50: 1.95 µM [mean of 2 tests] and 105 nM [mean of 46 tests] and 4.49 nM [mean of 7 tests]
  TGI: 78.7 µM [mean of 2 tests] and 11.3 µM [mean of 46 tests] and 890 nM [mean of 7 tests]
DU-145 prostate
  GI50: 119 nM [mean of 5 tests] and 1.11 nM [mean of 7 tests]
  TGI: 36.8 µM [mean of 5 tests] and 208 nM [mean of 7 tests]
K-562 leukemia
  GI50: 1.95 µM [1 test] and 2.3 nM [mean of 7 tests]
  TGI: 7.91 µM [1 test] and 71 µM [mean of 45 tests] and 3.44 µM [mean of 7 tests]
EKVX NSCLC
  GI50: 1.95 µM [1 test] and 6.43 nM [mean of 7 tests]
  TGI: 6.39 µM, 122 µM, 180 µM
TK-10 renal
  GI50: 2.66 µM [mean of 15 tests] and 8.44 µM [mean of 2 tests] and 44.7 nM [mean of 7 tests]
  TGI: 158 µM [mean of 15 tests] and 14.6 µM [mean of 2 tests] and 2.61 µM [mean of 7 tests]
SW-620 colon
  GI50: 1.95 µM [mean of 2 tests] and 105 nM [mean of 48 tests] and < 1 nM [mean of 9 tests]
SF-268 CNS
  GI50: 1.95 µM [mean of 2 tests] and < 1 nM [mean of 7 tests]
U251 CNS
  GI50: 1.95 µM [mean of 2 tests] and < 1 nM [mean of 7 tests]
HOP-62 NSCLC
  GI50: 1.95 µM [mean of 2 tests] and 1 nM [mean of 6 tests]
HCT-116 colon
  TGI: 50.7 nM and 3.8 µM
SNB-75 CNS
  GI50: 1.95 µM [mean of 2 tests] and < 1 nM [mean of 3 tests]
  TGI: 21.5 nM, 56.3 µM, 80.5 µM
HOP-92 NSCLC
  GI50: 1.95 µM [mean of 2 tests] and 119 nM [mean of 39 tests] and 12 nM [mean of 5 tests]
UACC-257 melanoma
  GI50: 1.95 µM [mean of 2 tests] and 145 nM [mean of 37 tests] and 249 nM [mean of 7 tests]
  TGI: 67 µM [mean of 2 tests] and 72.3 µM [mean of 37 tests] and 2.68 µM [mean of 7 tests]
SK-MEL-5 melanoma
  GI50: 1.95 µM [1 test] and 111 nM [mean of 44 tests] and < 1 nM [mean of 8 tests]
  TGI: 64 µM [1 test] and 519 nM [mean of 44 tests] and 5.63 nM [mean of 8 tests]
CCRF-CEM leukemia
  GI50: 1.95 µM [mean of 2 tests] and 1.04 nM [mean of 6 tests]
  TGI: 464 nM, 60.8 µM, 44.2 µM
M14 melanoma
  GI50: 105 nM [mean of 18 tests] and 1.95 µM [mean of 2 tests] and < 1 nM [mean of 5 tests]
  TGI: 10.2 µM [mean of 18 tests] and 36.2 µM [mean of 2 tests] and 213 nM [mean of 5 tests]
SR leukemia
  TGI: 212 nM and 11.3 µM
OVCAR-5 ovarian
  GI50: 135 µM [1 test] and 9.6 nM [mean of 6 tests]
  TGI: 8.62 µM, 210 µM, 254 µM
BT-549 breast
  GI50: 23.6 µM [1 test] and 19.9 nM [mean of 4 tests] and 259 nM [mean of 5 tests]
  TGI: 61 µM [1 test] and 2.03 µM [mean of 4 tests] and 62.7 µM [mean of 5 tests]
NCI-H23 lung
  TGI: 28.7 nM and 15.3 µM
SK-OV-3 ovarian
  GI50: 1.95 µM [mean of 2 tests] and 1.82 nM [mean of 6 tests]
  TGI: 1.4 µM, 22.7 µM, 22.2 µM
RPMI-8226 leukemia
  GI50: 1.95 µM [mean of 2 tests] and 106 nM [mean of 38 tests] and < 1 nM [mean of 7 tests]
  TGI: 26.8 µM [mean of 2 tests] and 14.8 µM [mean of 38 tests] and 196 nM [mean of 7 tests]
NCI-H226 lung
  GI50: 1.95 µM [mean of 2 tests] and 122 nM [mean of 35 tests] and 10.8 nM [mean of 6 tests]
  TGI: 9.99 µM [mean of 2 tests] and 327 nM [mean of 35 tests] and 1.71 µM [mean of 6 tests]
PC-3 prostate
  GI50: 1.95 µM [mean of 2 tests] and 1.47 nM [mean of 8 tests]
  TGI: 93.8 µM [mean of 2 tests] and 11.6 µM [mean of 6 tests] and 674 nM [mean of 8 tests]
HL-60(TB) leukemia
  GI50: 107 nM [mean of 34 tests] and 1.07 nM [mean of 6 tests]
  TGI: 450 nM [mean of 34 tests] and 14.4 nM [mean of 6 tests]
MOLT-4 leukemia
  GI50: 1.95 µM [mean of 2 tests] and 101 nM [mean of 42 tests] and 8.98 nM [mean of 7 tests]
HCT-15 colon
  GI50: 1.95 µM [mean of 2 tests] and 42.2 nM [mean of 9 tests]
  TGI: 1.88 µM, 27.4 µM, 35.6 µM
OVCAR-3 ovarian
  GI50: 1.95 µM [1 test] and 2.87 nM [mean of 7 tests]
  TGI: 12.3 nM, 455 nM, 140 µM
SF-539 CNS
  GI50: 106 nM [mean of 41 tests] and < 1 nM [mean of 5 tests]
  TGI: 135 nM [mean of 41 tests] and 4.95 nM [mean of 5 tests]
MCF7 breast
  GI50: 1.95 µM [mean of 2 tests] and < 1 nM [mean of 7 tests]
  TGI: 133 µM [mean of 2 tests] and 58.8 µM [mean of 30 tests] and 1.13 µM [mean of 7 tests]
HCC-2998 colon
  GI50: 109 nM [mean of 38 tests] and 1.06 nM [mean of 7 tests]
  TGI: 5.82 µM [mean of 38 tests] and 18.5 nM [mean of 7 tests]
MDA-N
  TGI: 21.5 nM and 1.07 µM
OVCAR-4 ovarian
  GI50: 42.4 µM [mean of 2 tests] and 32.8 nM [mean of 3 tests] and 476 nM [mean of 42 tests]
KM12 colon
  GI50: 2.93 µM [mean of 2 tests] and 109 nM [mean of 28 tests] and 2.88 nM [mean of 5 tests]
  TGI: 93.6 µM [mean of 2 tests] and 1.4 µM [mean of 28 tests] and 509 nM [mean of 5 tests]
LOX IMVI melanoma
  GI50: 1.95 µM [mean of 2 tests] and 105 nM [mean of 45 tests] and < 1 nM [mean of 6 tests]
  TGI: 46.8 µM [mean of 2 tests] and 57.9 µM [mean of 45 tests] and 2.15 µM [mean of 6 tests]
ACHN renal
  TGI: 2.61 µM and 150 µM
HT29 colon
  GI50: 107 nM [mean of 35 tests] and < 1 nM [mean of 4 tests]
A549 NSCLC
  GI50: 1.95 µM [mean of 2 tests] and 108 nM [mean of 50 tests] and 8.24 nM [mean of 9 tests]
  TGI: 158 µM [mean of 2 tests] and 124 µM [mean of 50 tests] and 5.94 µM [mean of 9 tests]
UO-31 renal
  TGI: 154 µM and 10.5 µM
UACC-62 melanoma
  GI50: 6.03 µM [mean of 2 tests] and 126 nM [mean of 47 tests] and < 1 nM [mean of 6 tests]
RXF 393 renal
  GI50: 1.95 µM [mean of 2 tests] and 49.9 nM [mean of 4 tests]
MDA-MB-231 breast
  TGI: 689 nM [mean of 6 tests] and 29.2 nM [mean of 8 tests]
IGROV1 ovarian
  GI50: 1.95 µM [mean of 2 tests] and 5.82 nM [mean of 8 tests]
  TGI: 95.6 µM [mean of 2 tests] and 38.9 µM [mean of 45 tests] and 920 nM [mean of 8 tests]
MDA-MB-435
  TGI: 16.2 nM and 1.22 µM
786-0 renal
  GI50: 1.95 µM [1 test] and 114 nM [mean of 20 tests] and 1.07 nM [mean of 6 tests]
  TGI: 62.5 µM [1 test] and > 69.7 µM [mean of 20 tests] and 585 nM [mean of 6 tests]
HS 578T breast
  GI50: 1.95 µM [mean of 2 tests] and 4.64 nM [mean of 6 tests]
  TGI: 64.7 µM [mean of 2 tests] and 5.74 µM [mean of 5 tests] and 2.15 µM [mean of 6 tests]
MALME-3M melanoma
  GI50: 1.95 µM [mean of 2 tests] and 3.17 nM [mean of 5 tests]
SNB-19 CNS
  GI50: 1.95 µM [mean of 2 tests] and 3.04 nM [mean of 7 tests]

Reference: PubChem BioAssay (NCI)
